Measured values from the supplement of paper PMC10338343.
± gives the standard deviation. Only a part is listed here, and it is no random draw.

Test system: MIWI (PIWIL1) piRISC loaded with piRNA #1 (30 nt)
Assay: pre-steady-state target cleavage rate (min^-1); MIWI and MILI are mouse PIWI proteins and EfPiwi is from a freshwater sponge; tags in brackets are library labels; higher = faster piRNA-guided slicing of the target
Conditions: guide: piRNA #1 5'p-UGAGGUAGUAGGUUGUAUAGUAUCCAGAGG; auxiliary factor: 500 nM mouse GTSF1
How it was run: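 Cleave-'n-Seq: a transcribed, DNA-blocked target RNA library (0.1 nM) was mixed with 1 nM active affinity-purified piRISC carrying one synthetic guide, with or without 500 nM GTSF1 partner protein, in HEPES–potassium acetate buffer at 33 °C for 0–8 or 0–960 min. Uncleaved targets were sequenced and normalised to depth and to weakly complementary targets. Three trials were pooled, and k3 was capped at 0.0001 min^-1. The pre-steady-state cleavage rate came from a burst-and-steady-state fit.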

| Sequence | pre-steady-state target cleavage rate |
| --- | --- |
| CCUCUGGAUACUAUACAAGCCUACUACCUCA | 0.013 ± 0.006 |
| GGAGAGGAUACGAUACAACCUACUACCUCA | 1.16 ± 0.065 |
| GGUCUGGAUACUAUACAUCCUACAACCUCA | 0.82 ± 0.066 |
| GGAGAGGAUACUAUACAACCUACGACCUCA | 0.714 ± 0.055 |
| GGUCUGGAUACUAUCACAACCUACUACCUCA | 1.58 ± 0.13 |
| GGAGACCUUACUUUACAACCUACUACCUCA | 1.02 ± 0.086 |
| GGAGUGAGAUACUAUACAACCUACUACCUCA | 1.77 ± 0.094 |
| GGAGACCUAACUAUACAACCUACUUCCUCA | 0.265 ± 0.042 |
| GCUCUGGAUACUAAACAAGCUACUACCUCA | 1.23 ± 0.069 |
| GGAGUGGAUACAAUACAACCUACUAGCUCA | 0.177 ± 0.031 |
| GGAGACCUUACAAUACAACCUACAACCUCA | 0.054 ± 0.011 |
| CAUCUGGAUACUAUACAACCUACUACCUCA | 1.37 ± 0.066 |
| GGUCUGGAUACUAACAACCUACUACCUCA | 1.81 ± 0.14 |
| GGAGACCUAACUAUACAACCUAACUACCUCA | 0.00844 ± 0.0024 |
| GGACAGGAUUCUAUACAACCUACUACCUCA | 1.56 ± 0.097 |
| CCUCUGGAUACUAUACAACCUACUAGCCUCA | 1.5 ± 0.11 |
| GGAGUGGACUACUAUACAACCUACUACCUCA | 1.47 ± 0.096 |
| GGAGACCAUACUAUACAAGCUUCUACCUCA | 0.112 ± 0.011 |
| GGAGACCUAUGAUAUCAACCUCACUACCUCA | 0.00553 ± 0.0012 |
| GCUCUGGAUACUAUAGUUCCUACUACCUCA | 0.191 ± 0.026 |

| Sequence | pre-steady-state target cleavage rate |
| --- | --- |
| GGAGACCAUUCUAUACAACGUACUACCUCA | 0.29 ± 0.033 |
| GGAGACCUAACUAUACAACCUACUACCUCG [g2:g21:cont:t1G] | 0.953 ± 0.086 |
| GGAGUGGAAACUAUACAACCUACUACGUCA | 0.436 ± 0.046 |
| GGAGAGGAUACUUAUCAACCUACUACCUCA | 0.62 ± 0.068 |
| GGAGACGAUACUAUACAACCUACUACGAGA | 0.592 ± 0.2 |
| GGAGACCAUACUAUAGCAACCUACUACCUCA | 0.383 ± 0.06 |
| GGAGACCUAACUAUACAAGCUACAACCUCA | 0.192 ± 0.025 |
| GGAGACCUUACUAUACAACCUACUGCCUCA | 0.883 ± 0.077 |
| GGAGACGAUACUAUACAUCCUACUUCCUCA | 0.364 ± 0.035 |
| GCUCUGGAUACAAUACAACCUACAACCUCA | 1.09 ± 0.071 |
| GGAGACCUAUCUAAACAACCUACUACCUCA | 0.144 ± 0.031 |
| GGAGACCUAACUAUACAACUUACUACCUCA | 0.25 ± 0.018 |
| GGAGAGGAUACUAAACAACCUACUACCUCA | 1.38 ± 0.066 |
| GCUCUCGAUACUAUACAACCAACUACCUCA | 0.169 ± 0.018 |
| GGACUGGAAACUAUUCAACCUACUACCUCA | 1.24 ± 0.1 |
| GGAGACGAUACUAUACAACCUACUUGCUCA | 0.464 ± 0.11 |
| GGAGACGAUACUAUAGAACCAACUACCUCA | 0.0639 ± 0.0077 |
| GGAGACCUUACUAUACAUGGUACUACCUCA | 0.00452 ± 0.0025 |
| GGAGACCUAACUAUACAACCUACUAUCCUCA | 0.805 ± 0.089 |
| GGAGUGCUUACUAUACAACCUACUACCUCA | 1.53 ± 0.11 |
